Measured values taken from PMC6656775, “Soluble and membrane-bound protein carrier mediate direct copper transport to the ethylene receptor family” (Scientific Reports, 2019).
These are yes or no findings as the source states them, for the method shown. In cells and extracts the contact can be indirect. Tags and fused reporters may be left off the sequences shown.

Key:
Test in all cases: split reporter; BiFC (split YFP, 2in1 vectors with RFP infiltration control) in transiently transformed N. benthamiana leaves, confocal microscopy; full-length ETR1 constructs under an inducible promoter, ERS1 and ETR1^1–157 constructs constitutive (d35S)
[1] = biological target: T1, ethylene receptor ERS1, BiFC fusion (UniProt Q38846)
T1 sequence: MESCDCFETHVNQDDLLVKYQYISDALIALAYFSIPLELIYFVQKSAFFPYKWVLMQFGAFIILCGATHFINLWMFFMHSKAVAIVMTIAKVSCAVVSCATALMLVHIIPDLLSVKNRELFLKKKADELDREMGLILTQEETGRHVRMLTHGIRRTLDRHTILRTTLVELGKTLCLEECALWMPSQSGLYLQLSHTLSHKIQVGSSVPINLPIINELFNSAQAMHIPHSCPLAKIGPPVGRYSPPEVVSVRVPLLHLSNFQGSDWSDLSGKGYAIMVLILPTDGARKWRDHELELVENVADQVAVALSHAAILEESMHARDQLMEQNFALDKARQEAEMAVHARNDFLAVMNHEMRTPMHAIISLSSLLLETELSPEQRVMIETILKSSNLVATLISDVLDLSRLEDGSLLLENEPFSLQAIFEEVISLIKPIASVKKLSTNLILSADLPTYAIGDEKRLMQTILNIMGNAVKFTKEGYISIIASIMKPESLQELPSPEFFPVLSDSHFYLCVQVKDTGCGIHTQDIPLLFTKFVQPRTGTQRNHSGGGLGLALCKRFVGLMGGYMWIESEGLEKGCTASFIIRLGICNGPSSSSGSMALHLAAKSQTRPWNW

[2] = biological target: T2, ANTIOXIDANT-1 (ATX1), BiFC fusion (A. thaliana) (UniProt Q94BT9)
T2 sequence: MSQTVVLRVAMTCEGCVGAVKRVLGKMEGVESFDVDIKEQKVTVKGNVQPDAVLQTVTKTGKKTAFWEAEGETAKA

[3] = biological target: T3, RESPONSIVE-TO-ANTAGONIST-1 (RAN1), full-length, BiFC fusion (A. thaliana) (UniProt Q9S7J8)
T3 sequence: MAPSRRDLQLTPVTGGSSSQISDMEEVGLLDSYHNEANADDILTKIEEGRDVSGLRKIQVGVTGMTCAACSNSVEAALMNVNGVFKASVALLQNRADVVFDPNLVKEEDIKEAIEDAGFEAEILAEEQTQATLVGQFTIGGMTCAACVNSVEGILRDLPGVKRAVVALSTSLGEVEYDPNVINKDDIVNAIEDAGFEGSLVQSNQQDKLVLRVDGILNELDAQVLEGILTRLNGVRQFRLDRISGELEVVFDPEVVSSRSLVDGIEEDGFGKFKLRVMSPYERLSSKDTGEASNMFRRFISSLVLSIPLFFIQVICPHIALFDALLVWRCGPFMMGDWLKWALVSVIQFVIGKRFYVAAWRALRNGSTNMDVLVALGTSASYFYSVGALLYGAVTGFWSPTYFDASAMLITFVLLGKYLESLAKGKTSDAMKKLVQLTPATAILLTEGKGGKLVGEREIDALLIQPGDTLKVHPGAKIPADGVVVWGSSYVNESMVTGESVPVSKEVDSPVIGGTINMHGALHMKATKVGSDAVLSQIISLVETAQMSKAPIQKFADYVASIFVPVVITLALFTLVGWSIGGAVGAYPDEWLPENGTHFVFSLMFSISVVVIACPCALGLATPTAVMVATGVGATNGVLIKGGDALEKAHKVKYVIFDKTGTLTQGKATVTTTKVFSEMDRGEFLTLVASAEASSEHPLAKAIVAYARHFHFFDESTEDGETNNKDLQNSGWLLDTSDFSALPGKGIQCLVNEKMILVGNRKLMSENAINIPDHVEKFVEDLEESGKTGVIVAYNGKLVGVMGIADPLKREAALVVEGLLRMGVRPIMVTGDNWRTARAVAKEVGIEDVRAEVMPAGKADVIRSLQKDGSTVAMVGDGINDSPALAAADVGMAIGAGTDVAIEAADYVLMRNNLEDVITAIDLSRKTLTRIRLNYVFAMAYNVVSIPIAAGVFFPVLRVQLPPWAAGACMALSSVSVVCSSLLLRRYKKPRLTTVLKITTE

[4] = biological target: T4, ethylene receptor ETR1, full-length, BiFC fusion (A. thaliana) (UniProt P49333)
T4 sequence: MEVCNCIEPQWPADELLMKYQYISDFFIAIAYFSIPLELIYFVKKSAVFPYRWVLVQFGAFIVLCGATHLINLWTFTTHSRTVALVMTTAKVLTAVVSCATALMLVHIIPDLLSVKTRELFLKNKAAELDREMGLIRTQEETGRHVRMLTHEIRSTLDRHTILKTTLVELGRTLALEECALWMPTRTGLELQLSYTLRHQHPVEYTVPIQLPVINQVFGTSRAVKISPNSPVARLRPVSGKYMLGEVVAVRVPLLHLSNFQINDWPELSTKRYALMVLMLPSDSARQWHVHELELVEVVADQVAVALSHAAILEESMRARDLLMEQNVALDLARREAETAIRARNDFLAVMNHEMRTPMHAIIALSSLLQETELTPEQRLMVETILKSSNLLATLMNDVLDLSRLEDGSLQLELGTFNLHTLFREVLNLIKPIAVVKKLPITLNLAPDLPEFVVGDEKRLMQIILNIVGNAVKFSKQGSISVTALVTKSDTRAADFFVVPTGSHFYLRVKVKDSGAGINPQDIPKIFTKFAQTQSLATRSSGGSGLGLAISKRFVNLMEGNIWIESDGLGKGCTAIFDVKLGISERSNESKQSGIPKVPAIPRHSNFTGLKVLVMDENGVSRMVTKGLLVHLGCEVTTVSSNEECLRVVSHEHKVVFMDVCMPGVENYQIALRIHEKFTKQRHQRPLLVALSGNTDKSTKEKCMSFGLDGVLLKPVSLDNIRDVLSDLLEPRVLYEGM

[5] = biological target: T5, COPPER TRANSPORT PROTEIN (CCH), BiFC fusion (A. thaliana) (UniProt O82089)
T5 sequence: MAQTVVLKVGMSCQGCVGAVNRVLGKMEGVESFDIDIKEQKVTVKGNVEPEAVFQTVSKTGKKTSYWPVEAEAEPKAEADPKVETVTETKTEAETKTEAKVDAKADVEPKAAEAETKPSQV

[6] = biological target: T6, ETR1^1–157, BiFC fusion (A. thaliana) (UniProt P49333)
T6 sequence: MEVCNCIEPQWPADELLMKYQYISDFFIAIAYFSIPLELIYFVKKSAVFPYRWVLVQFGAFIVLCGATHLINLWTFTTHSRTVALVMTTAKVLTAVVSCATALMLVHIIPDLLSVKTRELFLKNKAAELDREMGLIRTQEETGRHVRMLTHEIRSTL

Measured: binding

B1: Receptor-like protein CLAVATA2 (CLV2), BiFC negative control (protein, UniProt O80809 26-720)
chain: QLPDLDPQDKASLLIFRVSIHDLNRSLSTWYGSSCSNWTGLACQNPTGKVLSLTLSGLNLSSQIHPSLCKLSSLQSLDLSHNNFSGNIPSCFGSLRNLRTLNLSRNRFVGSIPATFVSLKELREVVLSENRDLGGVVPHWFGNFSMNLERVDFSFCSFVGELPESLLYLKSLKYLNLESNNMTGTLRDFQQPLVVLNLASNQFSGTLPCFYASRPSLSILNIAENSLVGGLPSCLGSLKELSHLNLSFNGFNYEISPRLMFSEKLVMLDLSHNGFSGRLPSRISETTEKLGLVLLDLSHNSFSGDIPLRITELKSLQALRLSHNLLTGDIPARIGNLTYLQVIDLSHNALTGSIPLNIVGCFQLLALMISNNNLSGEIQPELDALDSLKILDISNNHISGEIPLTLAGLKSLEIVDISSNNLSGNLNEAITKWSNLKYLSLARNKFSGTLPSWLFKFDKIQMIDYSSNRFSWFIPDDNLNSTRFKDFQTGGGEGFAEPPGKVEIKISAAVVAKDELSFSYNLLSMVGIDLSDNLLHGEIPEALFRQKNIEYLNLSYNFLEGQLPRLEKLPRLKALDLSHNSLSGQVIGNISAPPGLTLLNLSHNCFSGIITEKEGLGKFPGALAGNPELCVETPGSKCDPANIDASQEEIYQNELVEGPISIWIFCLSAFISFDFGVLGIFCSARARSYILQTKA
no binding: [1] | [2] | [3] | [4] | [5] | [6]
